Source: the supplement of paper PMC4604168 (melanoma cell lines)
This is one part of the list. Most values come without repeats; read them as rough.

Legend:
Experiment in all cases: cell count relative to DMSO control; melanoma cells; higher = more viable cells
Settings in all cases: library dose: standard library concentration; 72 h
[1] = tested on: SkMel28
[2] = tested on: SkMel2
[3] = tested on: SkMel30
[4] = tested on: SkMel5
[5] = tested on: UACC257
[6] = tested on: UACC62
[7] = tested on: WM115
[8] = tested on: WM1716
[9] = tested on: WM3526
[10] = tested on: WM1745
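Also: cells treated in 1,536-well plates, then fixed and DAPI-stained, with nuclei counted from automated high-throughput microscope images.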

Row | SMILES | cell count [1] | cell count [2] | cell count [3] | cell count [4] | cell count [5] | cell count [6] | cell count [7] | cell count [8] | cell count [9] | cell count [10]
1 | Cn1c(=O)n(-c2ccc(C(C)(C)C#N)cc2)c2c3cc(-c4cnc5ccccc5c4)ccc3ncc21 + COc1ccc(-c2ccc3c(N4CCOCC4)nc(N4C[C@@H](C)O[C@@H](C)C4)nc3n2)cc1CO [KU0063794] (first compound 0.02 µM, partner dose 0.1 µM) | 59.3% | 68.4% | 63.5% | 69.8% | 94.3% | 82.3% | 69.9% | 66.5% | 74.2% | –
2 | COc1ccc(C2=N[C@@H](c3ccc(Cl)cc3)[C@@H](c3ccc(Cl)cc3)N2C(=O)N2CCNC(=O)C2)c(OC(C)C)c1 [Nutlin-3] + OCCn1cc(-c2cnc3nnn(Cc4ccc5ncccc5c4)c3n2)cn1 [PF04217903] (first compound 0.5 µM, partner dose 5 µM) | 44.8% | 87% | 92.1% | 69.5% | 70.2% | 76.5% | 73.6% | 59.1% | 95.7% | 79.6%
3 | COc1ccc(C2=N[C@@H](c3ccc(Cl)cc3)[C@@H](c3ccc(Cl)cc3)N2C(=O)N2CCNC(=O)C2)c(OC(C)C)c1 [Nutlin-3] + COc1ccc(-c2ccc3c(N4CCOCC4)nc(N4C[C@@H](C)O[C@@H](C)C4)nc3n2)cc1CO [KU0063794] (first compound 0.5 µM, partner dose 0.1 µM) | 46.7% | 73.2% | 90.7% | 46.7% | 77.1% | 73.3% | 59.1% | 66.9% | 77.5% | –
4 | COc1ccc(C2=N[C@@H](c3ccc(Cl)cc3)[C@@H](c3ccc(Cl)cc3)N2C(=O)N2CCNC(=O)C2)c(OC(C)C)c1 [Nutlin-3] + COc1cc2ncnc(Nc3ccc(Oc4ccccc4)cc3)c2cc1OC [SrcI1] (first compound 0.5 µM, partner dose 10 µM) | 47.5% | 92.8% | 114% | 53% | 79.9% | 46.9% | 46.7% | 63.3% | 48.8% | –
5 | Cc1cn(-c2cc(NC(=O)c3ccc(C)c(Nc4nccc(-c5cccnc5)n4)c3)cc(C(F)(F)F)c2)cn1 [nilotinib] + O=C1NC(=O)/C(=C/c2ccc(-c3ccc(F)cc3O)o2)S1 [AS252424] (first compound 1 µM, partner dose 5 µM) | 96.6% | 78% | 93.1% | 71.2% | 102% | 106% | 87.9% | 112% | 79.3% | –
6 | Cc1cc(Nc2cc(N3CCN(C)CC3)nc(/C=C/c3ccccc3)n2)n[nH]1 + CCc1ccc(CCOc2ccc(CC3SC(=O)NC3=O)cc2)nc1 [pioglitazone] (first compound 0.2 µM, partner dose 10 µM) | 43.2% | 82.8% | 81.4% | 79.7% | 93.1% | 80.9% | 67.7% | 80.3% | 90.4% | –
7 | Cc1cc(Nc2cc(N3CCN(C)CC3)nc(/C=C/c3ccccc3)n2)n[nH]1 + COC(=O)c1sccc1S(=O)(=O)Nc1ccc(Nc2ccccc2)cc1OC [GSK0660] (first compound 0.2 µM, partner dose 5 µM) | 56.6% | 86.6% | 79% | 70.7% | 85.9% | 81.4% | 81.2% | 89.1% | 91.7% | –
8 | CC(C)C[C@H](NC(=O)[C@H](Cc1ccccc1)NC(=O)c1cnccn1)B(O)O [Bortezomib] + COC(=O)c1sccc1S(=O)(=O)Nc1ccc(Nc2ccccc2)cc1OC [GSK0660] (first compound 0.005 µM, partner dose 5 µM) | 33.3% | 33.7% | 28.1% | 28.4% | 66.2% | 72.9% | 30.9% | 19.2% | 27.1% | –
9 | Cn1c(=O)n(-c2ccc(C(C)(C)C#N)cc2)c2c3cc(-c4cnc5ccccc5c4)ccc3ncc21 + CCc1ccc(CCOc2ccc(CC3SC(=O)NC3=O)cc2)nc1 [pioglitazone] (first compound 0.02 µM, partner dose 10 µM) | 66.2% | 72.2% | 73.1% | 88.9% | 83.3% | 91.2% | 69.5% | 91.1% | 81.6% | –
10 | CC(C)C[C@H](NC(=O)[C@H](Cc1ccccc1)NC(=O)c1cnccn1)B(O)O [Bortezomib] + CCCCCCCCCCCC1=C(O)C(=O)C=C(O)C1=O [Embelin] (first compound 0.005 µM, partner dose 6 µM) | 74.6% | 88.2% | 102% | 106% | 85.8% | 80.3% | 99.2% | 48.1% | 105% | –
11 | CC(C)C[C@H](NC(=O)[C@H](Cc1ccccc1)NC(=O)c1cnccn1)B(O)O [Bortezomib] + O=S(=O)(c1ccccc1)N(CC(F)(F)F)c1ccc(C(O)(C(F)(F)F)C(F)(F)F)cc1 [T0901317] (first compound 0.005 µM, partner dose 7 µM) | 25.2% | 32.5% | 19.1% | 20.4% | 77% | 60.9% | 17.6% | 21.4% | 18.7% | –
12 | Cn1c(=O)n(-c2ccc(C(C)(C)C#N)cc2)c2c3cc(-c4cnc5ccccc5c4)ccc3ncc21 + Oc1cc(-c2nc(-c3ccccc3)[nH]c2-c2ccncc2)ccc1Cl [L779450] (first compound 0.02 µM, partner dose 1 µM) | 34.5% | 12.1% | 52.8% | 60.1% | 84.6% | 57% | 29.5% | 50.6% | 44.7% | –
13 | COc1ccc(C2=N[C@@H](c3ccc(Cl)cc3)[C@@H](c3ccc(Cl)cc3)N2C(=O)N2CCNC(=O)C2)c(OC(C)C)c1 [Nutlin-3] + CCc1ccc(CCOc2ccc(CC3SC(=O)NC3=O)cc2)nc1 [pioglitazone] (first compound 0.5 µM, partner dose 10 µM) | 54% | 87.8% | 127% | 66.7% | 85.8% | 63.7% | 59.3% | 77.7% | 91.4% | –
14 | Cn1c(=O)n(-c2ccc(C(C)(C)C#N)cc2)c2c3cc(-c4cnc5ccccc5c4)ccc3ncc21 + COC(=O)c1sccc1S(=O)(=O)Nc1ccc(Nc2ccccc2)cc1OC [GSK0660] (first compound 0.02 µM, partner dose 5 µM) | 47.5% | 62.8% | 72.1% | 62.4% | 77.4% | 69.4% | 73.3% | 75.1% | 65.7% | –
15 | CC(C)C[C@H](NC(=O)[C@H](Cc1ccccc1)NC(=O)c1cnccn1)B(O)O [Bortezomib] + COc1ccc(COc2ccc(Cc3cnc(N)nc3N)cc2OC)cc1 [GW2580] (first compound 0.005 µM, partner dose 5 µM) | 29.4% | 72% | 37.1% | 34.5% | 72.3% | 48.7% | 27.1% | 19.5% | 26.8% | –
16 | COc1ccc(C2=N[C@@H](c3ccc(Cl)cc3)[C@@H](c3ccc(Cl)cc3)N2C(=O)N2CCNC(=O)C2)c(OC(C)C)c1 [Nutlin-3] + Cc1cc([N+](=O)[O-])ccc1NS(=O)(=O)c1cc(Cl)ccc1Cl [FH535] (first compound 0.5 µM, partner dose 5 µM) | 55% | 78.8% | 104% | 54.3% | 65% | 75.5% | 72.7% | 67.1% | 84% | –
17 | COc1ccc(C2=N[C@@H](c3ccc(Cl)cc3)[C@@H](c3ccc(Cl)cc3)N2C(=O)N2CCNC(=O)C2)c(OC(C)C)c1 [Nutlin-3] + COc1ccc2c(c1)CCC1C2CCC2(C)C(NCCCCCCN3C(=O)C=CC3=O)CCC12 [U73122] (first compound 0.5 µM, partner dose 2 µM) | 64.4% | 86.8% | 88% | 60.8% | 76.4% | 60.5% | 60.1% | 60.5% | 82% | –
18 | Cc1cc(Nc2cc(N3CCN(C)CC3)nc(/C=C/c3ccccc3)n2)n[nH]1 + Oc1nc(-c2ccc(C(F)(F)F)cc2)nc2c1CSCC2 [XAV939] (first compound 0.2 µM, partner dose 10 µM) | 55% | 96% | 124% | 73.8% | 92.3% | 89.9% | 80.8% | 72.4% | 108% | –
19 | Cc1cc(Nc2cc(N3CCN(C)CC3)nc(/C=C/c3ccccc3)n2)n[nH]1 + O=C1NC(=O)/C(=C/c2ccc(-c3ccc(F)cc3O)o2)S1 [AS252424] (first compound 0.2 µM, partner dose 5 µM) | 85.7% | 91.8% | 94% | 70.8% | 91% | 75.4% | 88.5% | 92.9% | 79.5% | –
20 | Cc1cc(Nc2cc(N3CCN(C)CC3)nc(/C=C/c3ccccc3)n2)n[nH]1 + COc1cc2ncnc(Nc3ccc(Oc4ccccc4)cc3)c2cc1OC [SrcI1] (first compound 0.2 µM, partner dose 10 µM) | 77.4% | 106% | 107% | 81.3% | 89.6% | 66% | 77% | 88.8% | 63.8% | –
21 | COc1ccc(C2=N[C@@H](c3ccc(Cl)cc3)[C@@H](c3ccc(Cl)cc3)N2C(=O)N2CCNC(=O)C2)c(OC(C)C)c1 [Nutlin-3] + c1cc(-c2cnn3cc(-c4ccc(OCCN5CCCCC5)cc4)cnc23)ccn1 [Dorsomorphin] (first compound 0.5 µM, partner dose 2 µM) | 44.9% | 84.1% | 85.3% | 58.5% | 70.4% | 63.4% | 47.6% | 66.6% | 77.1% | –
22 | Cc1cc(Nc2cc(N3CCN(C)CC3)nc(/C=C/c3ccccc3)n2)n[nH]1 + Cc1cc([N+](=O)[O-])ccc1NS(=O)(=O)c1cc(Cl)ccc1Cl [FH535] (first compound 0.2 µM, partner dose 5 µM) | 43.2% | 82.3% | 87.3% | 62.6% | 71.8% | 69.8% | 69.1% | 67.7% | 75.1% | –
23 | Cc1cc(Nc2cc(N3CCN(C)CC3)nc(/C=C/c3ccccc3)n2)n[nH]1 + CCCCCCCCCCCC1=C(O)C(=O)C=C(O)C1=O [Embelin] (first compound 0.2 µM, partner dose 6 µM) | 40.8% | 93% | 84.3% | 91.8% | 83.3% | 74.8% | 93.7% | 85.3% | 93.3% | –
